Read counts are not given, so values of variants with three or more changes are uncertain.
B1: LINE1-full (parent)
chain: UACGUAGGUGGUUUUCCCCUGAUAGUGCUAAGGGGGCCUGGAAGUUUGGACUGGGCAGAGCUCAACACAGCGUGGCAAAGUGGCUGUGGCUAGACUGCCUCUCUGGAUUCCUCGUCACUCAGCAGGGCAUCUCUGAGAGAAAUGCC

Variants of: B1
Test: self-cleavage, relative activity (ratio to wild type); higher = more cleavage; in vitro, sequencing; the parent is a self-cleaving ribozyme

Variant	self-cleavage
UACGUAGGCGGUUUUCCCCUGAUAGUGCUAAGGGGGCCUGGAAGUUAGGACUGGGCAGAGCUCAUCACAGCGUGGCAAAGUGGCUGUGGCUAGACUGCCUCUCUGGAUUCCUCGUCACUCAGCAGGGCAUCUCUGAGAGAAAUGCC [U9C U47A A65U]	0.17
UACGUAGGCGGUUUUCCCCUGAUAGUGCCAAGGGGGCCUGGAAGUUUGGACUGGGCAGAGCCCAACACGGCGUGGCAAAGUGGCUGUGGCUAGACUGCCUCUCUGGAUUCCUCGUCACUCAGCAGGGCAUCUCUGAGAGUAAUGCC [U9C U29C U62C A69G A140U]	0
UACGUAGGCGGUUUCCCCCUGAUAGUGCUAAGGGGGCCUGGAAGUUUGGACUGGGCAGAGCUCAACACAGCGUGGCAAAGUGGCUGUGGCUAGACUGCCUCUCCGGAUUCCUCGUCACUCAGCAGGGCAUCUCUGAGAGAAGUGCC [U9C U15C U104C A142G]	0
UACGUAGGCGGUUUUCCCCUGAUAGUGCUAAGGGGGCCUGGAAGUCUGGACUGGGCAGAGCUCAACACAGCGUGGCAAAGUGGCUGUGGCUAGACUGCCUCUCUGGAUUCCGCGUCACUCAGCAGGGCAUCUCUGAGAGAAAUGCC [U9C U46C U112G]	2.76
UACGUAGGCGGUUUUCCCCUGAUAGUGCUAAGGGGGCCUGGAAGUUUGGACCGGGCAGAGCUCAACACAGCGUGGCAAAGUGGCUGUGGCUAGACUGCCUCUCCGGAUUCCUCGUCACUCAGCAGGGCAUCUCUGAGAGAAAUGCC [U9C U52C U104C]	0.57
UACGUAGGCGGUUUUCCCCGGAUAGUGCUAAGGGGGCCUGGAAGUUCGGACUGGGCAGAGCUCAACACAGCGUGGCAAAGUGGCUGUGGCUAGACUGCCUCUCUGGAUUCCUCGUCACUCAGCAGGGCACCUCUGAGAGAAAUGCC [U9C U20G U47C U130C]	0
UACGUAGGCGGUUUUCCCCCGAUAGUGCUAAGGGGGACUGGAUGUUUGGACUGGGCAGAGCUCAACACAGCGUGGCAAAGUGGCUGUGGCUAGACUGCCUCUCUGGAUUCCUCGCCACUCAGCAGGGCAUCUCUGAGAGAGAUGCC [U9C U20C C37A A43U U115C A141G]	0.82
UACGUAGGCGGUUUUCCCCUGAUAGCGCUAAGGGGGCCUGGAAGUUUGGACUGGGCAGAGCUCAACACAGCGUGGCAAAGUGGCUGUGGCUAGACUGCCUCUCUGGAUUCCUCGUCACUCAGCAGGGCAUCUCCGAGAGAAAUGCC [U9C U26C U134C]	0.59
UACGUAGGCGGUUUUCCCCUGAUAGUGCUAAGGGGGCCUGGAAGUAUGGGCUGGGCAGAGCUCAACACAGCGUGGCAAAGUGGCUGUGGCUAGACUGCUUCUCUGGAUUCCUCGUCACUCGGCAGGGCAUCUCUGAGAGAAAAGCC [U9C U46A A50G C99U A121G U143A]	1.23
UACGUAGGCGGUUUCCCCCUGAUAGUGCUAAGGGGGCCUGGAAGUUUGGACUGGGCAGAGCUCAACACAGCGUGGCAAAGAGGCUGUGGCUAGACUGCCUCUCUGGAUUCCUCGUCACUCAGCAGGGCAUCUCUGAGAGAAACGCC [U9C U15C U81A U143C]	1.7
UACGUAGGCGGUUUUCCCCUGAUAGUGCUAAGGGGGCCUGGAAGUUUGGACCGGGCAGAGCUCAACACAGCGUGGCGAAGUGGCUGUGGCUAGACUGCCUCUCUGGAUUCCUCGUCACUCAGCAGGGCAUCUCUGAGAGAAAAGCC [U9C U52C A77G U143A]	1.15
UACGUAGGCGGUUUUCCCCUGAUAGUGCUAAGGGGGCCCGGAAGUUUGGACUGGGCAGAGCUCAACACAGCGUGGCAAAGAGGCUGUGGCUAGACUGCCUCUCUGGAUCCCUCGUCACUCAGCGGGGCAUCUCUGAGAGAAAUGCC [U9C U39C U81A U109C A124G]	1.31
UACGUAGGCGGUUUUCCCCUGAUAGUGCGAAGGGGGCCUGGAAGUUUGGACUGGGCAGAGCUCAACACAGCGUGGCAAAGUGGCUGUGGCUAGACUGCCUCUCUGGAUUCCUCGUCACUCAUCAGGGCAUCUCUGGGAGAAAUGCC [U9C U29G G122U A136G]	0.74
UACGUAGGCGGUUUUCCCCUGAUAGUGCUAAGGGGGCCCGGAAGUUUGGACUGGGCAGAGCUCAACACAGCGUGGCAAAGUGGCUGUGGCUCGACUGCCUCUCUGGAUUCCUCGUCACUCAGCAGGGCAUCUCUGAGAGAAAUGCC [U9C U39C A92C]	1.25
UACGUAGGCGGUUUUCCCCUGAUAGUGCUAAGGGGGCCUGGAAGUUAGGACCGGGCAGAGCUCAACACAGCGUGGCAAAGUGGCUGUGGCUAGACUGCCUCUCUGGAUUCCUCGUCACUCAGCAGGGCAUCUCUGAGAGAAAUGCC [U9C U47A U52C]	1.05
UACGUAGGCGGUUUUCCCCUGAAAGUGCUAAGGGGGCCUGGAAGUUUGGUCUGGGCAGAGCUCAACACAGCGUGGCAAGGUGGCUGUGGCUAGACUGCCUCUCUGGAUUCCUCGUCACUCAGCAGGGCAUCUCUGAGAGAAAUGCC [U9C U23A A50U A79G]	0.48
UACGUAGGCGGUUUUCCCCUGAUAGUGCUAAGGGGGCCUGGAAGUUCGGACUGGGCAGAGCUCAACACAGCGUGGCAAAGUGGCUGUGGCUAGACUGCCUCUCUGGAUUCCUCGUCACUCAGCAGGGCAUUUCUGAGGGAAAUGCC [U9C U47C C131U A138G]	1.45
UACGUAGGCGGUUUCCCCCUGAUAGUGCUAAGGGGGCCUGGAAGUUUGGACAGGGCAGAGCUCAACACAGCGUGGCAAAGUGGCUGUGGCUAGACUGCCUCUCUGGGUUCCUCGUCACUCAGCAGGGCAUCUCUGAGAGAAAUGCC [U9C U15C U52A A107G]	0.35
UACGUAGGCGGUUUUCCCCUGAUAGUGCUAAGGGGGCCUGGAAGUUCGGUCCGGGCAGAGCUCAACACAGCGUGGCAAAGUGGCUGUGGCAAGACUGCCUCUCUGGAUUCCUCGUCACUCAGCAGGGCAUCUCUGAGAGAAAUGCC [U9C U47C A50U U52C U91A]	1.02
UACGUAGGCGGUUUUCCCCCGAUAGUGCUAAGGGGGCCUGGAAGUUUGGACUGGGCAGAGCUCAACACAGCGUGGCAAAGUGGCUGUGGCUAGACUGCCUCUCUGGAUUCCUCGUCACUCAGCAGGGCAUCUCUGAGAGAAACGCC [U9C U20C U143C]	1.46

From the RNAGym collection of RNA variant scans (doi:10.7554/elife.90254)
